# This is one part of the list.
# Tests used:
# HSkMC = human skeletal muscle cells; experiment: cytotoxicity call (relative viability < 0.9); conditions: 10 µM
# HepG2 = experiment: cytotoxicity call (relative viability < 0.9); conditions: 10 µM
# S. aureus RN4220 = experiment: growth inhibition call (relative growth <= 0.2); conditions: 50 µM
SMILES,cytotoxicity call (HSkMC),cytotoxicity call (HepG2),growth inhibition call (S. aureus RN4220)
C[C@@H]1CN([C@H](C)CO)C(=O)c2cccc(NC(=O)C3CCOCC3)c2O[C@@H]1CN(C)C(=O)NC1CCCCC1,inactive,inactive,inactive
C[C@@H]1CN([C@@H](C)CO)C(=O)Cc2cc(NS(=O)(=O)c3cn(C)cn3)ccc2O[C@H]1CN(C)S(=O)(=O)c1ccccc1,inactive,inactive,inactive
C[C@@H]1CN([C@H](C)CO)S(=O)(=O)c2ccc(-c3cncnc3)cc2O[C@@H]1CN(C)C(=O)Cc1ccncc1,inactive,inactive,inactive
C[C@H](CO)N1C[C@H](C)[C@H](CN(C)Cc2ccc(Oc3ccccc3)cc2)Oc2ccc(NC(=O)Nc3ccc4c(c3)OCO4)cc2CC1=O,inactive,active,inactive
CCCNC(=O)N(C)C[C@H]1Oc2cc(C#Cc3ccccn3)ccc2S(=O)(=O)N([C@H](C)CO)C[C@@H]1C,inactive,inactive,inactive
COc1ccc2c3c(n(c2c1)C)[C@H](CO)N(C[C@]13CCN(CC1)C(=O)Nc1cccc(c1)F)C(=O)CN1CCOCC1,inactive,inactive,inactive
O=C(C[C@H]1C=C[C@H](NC(=O)CN2CCOCC2)[C@H](CO)O1)NCc1cccc(F)c1,inactive,inactive,inactive
C[C@H](CO)N1C[C@H](C)[C@@H](CN(C)C(=O)Nc2ccc(C(F)(F)F)cc2)Oc2ccc(NS(=O)(=O)c3ccc(Cl)cc3)cc2CC1=O,inactive,inactive,inactive
CN1CCC(Nc2nc(Nc3ccc(Oc4ccccc4)cc3)c3c(O)ncc(Br)c3n2)CC1,active,active,inactive
C[C@H]1CN([C@@H](C)CO)S(=O)(=O)c2ccc(C#Cc3cccc(F)c3)cc2O[C@H]1CN(C)S(=O)(=O)c1ccccc1F,inactive,inactive,inactive
C[C@@H]1CCCCO[C@@H](CN(C)C(=O)Cc2ccccc2)[C@@H](C)CN([C@H](C)CO)C(=O)c2cc(NC(=O)c3ccccc3)ccc2O1,inactive,inactive,inactive
C[C@@H]1CCC[C@H](C)N1c1nn(C)c(=O)[nH]1,inactive,inactive,inactive
CON=C(C(=O)N[C@@H]1C(=O)N2C(C(=O)OCOC(=O)C(C)(C)C)=C(C=Cc3scnc3C)CS[C@H]12)c1csc(N)n1,inactive,inactive,active
C[C@H]1CN([C@@H](C)CO)C(=O)c2cccc(NS(=O)(=O)c3cn(C)cn3)c2O[C@@H]1CN(C)C(=O)NC1CCCCC1,inactive,inactive,inactive
CC(=O)N[C@H]1CC[C@H](CCNC(=O)C2CC2)O[C@@H]1CO,inactive,inactive,inactive
C[C@@H]1CN([C@H](C)CO)C(=O)c2cc(NC(=O)Nc3ccc(F)cc3)ccc2O[C@@H](C)CCCCO[C@H]1CN(C)Cc1ccc(Cl)c(Cl)c1,active,active,inactive
C[C@@H]1CCCCO[C@@H](CN(C)C(=O)Nc2ccc3c(c2)OCO3)[C@@H](C)CN([C@H](C)CO)C(=O)c2cc(NC(=O)Nc3ccccc3)ccc2O1,inactive,inactive,inactive
COCC#Cc1ccc2c(c1)O[C@@H](CN(C)Cc1ccc3c(c1)OCO3)[C@@H](C)CN([C@H](C)CO)S2(=O)=O,inactive,inactive,inactive
COCC(=O)Nc1ccc2c(c1)[C@@H]1C[C@H](CC(=O)N3CCOCC3)O[C@H](CO)[C@@H]1O2,inactive,inactive,inactive
C[C@H]1CCCCO[C@H](CN(C)S(=O)(=O)c2ccccc2)[C@@H](C)CN([C@@H](C)CO)C(=O)c2cc(NC(=O)Nc3ccc(F)cc3)ccc2O1,inactive,active,inactive
CC(C)CC#Cc1cnc2c(c1)C(=O)N([C@@H](C)CO)C[C@@H](C)[C@H](CN(C)S(=O)(=O)c1cn(C)cn1)O2,inactive,inactive,inactive
Cc1ccc2nc(SCc3c(C)c(C)cc(C)c3C)[nH]c2c1,inactive,inactive,inactive
C[C@@H]1CN([C@@H](C)CO)C(=O)c2cccc(NS(=O)(=O)c3ccc(F)cc3)c2O[C@H]1CN(C)S(=O)(=O)c1ccccc1,inactive,inactive,inactive
COc1ccc(NC(=O)Nc2ccc3c(c2)C(=O)N([C@H](C)CO)C[C@H](C)[C@@H](CN(C)C(=O)Nc2cccc4ccccc24)OCCCC[C@@H](C)O3)cc1,inactive,inactive,inactive
Cc1noc(C)c1S(=O)(=O)Nc1cccc2c1O[C@H](CN(C)S(C)(=O)=O)[C@H](C)CN([C@H](C)CO)C2=O,inactive,inactive,inactive
Cc1noc(C)c1NC(=O)Nc1ccc2c(c1)C(=O)N([C@@H](C)CO)C[C@H](C)[C@@H](CN(C)Cc1ccncc1)OCCCC[C@H](C)O2,inactive,inactive,inactive
C[C@@H]1CN([C@H](C)CO)C(=O)Cc2cc(NC(=O)Nc3cccc4ccccc34)ccc2O[C@@H]1CN(C)Cc1ccc(-c2ccccc2)cc1,inactive,inactive,inactive

SMILES,cytotoxicity call (HSkMC),cytotoxicity call (HepG2),growth inhibition call (S. aureus RN4220)
COc1ccc(CN2C[C@@H](C)[C@H](OC)CN(C)C(=O)c3cc(NC(=O)c4nc5ccccc5s4)ccc3OC[C@@H]2C)cc1,inactive,active,inactive
O=C(C[C@@H]1CC[C@@H]2[C@H](COC[C@H](O)CN2S(=O)(=O)c2ccccc2)O1)NCc1ccncn1,inactive,inactive,inactive
COC[C@H]1CN(C)N=C(C2CC2)O1,inactive,inactive,inactive
COc1ccc(NC(=O)Nc2cccc3c2O[C@H](CN(C)Cc2ccc(-c4ccccc4)cc2)[C@H](C)CN([C@@H](C)CO)C3=O)cc1,inactive,active,inactive
C=C1C2CCC3(C)C(c4ccoc4)OC(=O)CC13OC1CC(=O)C(C)(C)C(C(O)C(=O)OC)C12C (configuration not stated),inactive,inactive,inactive
COc1ccc(NC(=O)Nc2cccc3c2O[C@@H](CN(C)S(=O)(=O)c2cn(C)cn2)[C@H](C)CN([C@@H](C)CO)C3=O)cc1,inactive,inactive,inactive
COc1ccc(NC(=O)Nc2cccc3c2O[C@H](CN(C)Cc2ccc(C(F)(F)F)cc2)[C@H](C)CN([C@H](C)CO)C3=O)cc1,inactive,inactive,inactive
Cc1noc(C)c1NC(=O)Nc1ccc2c(c1)C(=O)N([C@@H](C)CO)C[C@H](C)[C@@H](CN(C)C(=O)Cc1ccccc1)OCCCC[C@H](C)O2,inactive,inactive,inactive
C[C@H]1CN([C@@H](C)CO)C(=O)Cc2cc(NS(=O)(=O)c3ccc(Cl)cc3)ccc2O[C@@H]1CN(C)Cc1ccc(Oc2ccccc2)cc1,active,active,inactive
COc1ccc([Si](C)(C)[C@H]2[C@H](CC(=O)N(CCO)Cc3ccccc3)O[C@@]3(C(=O)N(Cc4cccc(N5CCC5=O)c4)c4ccccc43)[C@@H]2C)cc1,inactive,inactive,inactive
CN(C)CCCNC(=O)C[C@H]1CC[C@H]2[C@@H](COC[C@H](O)CN2S(=O)(=O)c2ccccc2)O1,inactive,inactive,inactive
NC1(C(=O)O)CC1,inactive,inactive,inactive
Cc1noc(C)c1NC(=O)Nc1ccc2c(c1)C(=O)N([C@H](C)CO)C[C@H](C)[C@H](CN(C)Cc1ccncc1)OCCCC[C@H](C)O2,inactive,inactive,inactive
CNC[C@@H]1OCCCC[C@@H](C)Oc2ccc(NS(=O)(=O)c3c(C)noc3C)cc2C(=O)N([C@@H](C)CO)C[C@H]1C,inactive,inactive,inactive
C[C@@H]1CN([C@@H](C)CO)C(=O)CCCn2nncc2CO[C@H]1CN(C)C(=O)CCCN(C)C,inactive,inactive,inactive
COc1ccc(C#Cc2ccc3c(c2)[C@]2(C(=O)N3)[C@H](c3ccc(O)cc3)N3[C@H](c4ccccc4)[C@H](c4ccccc4)OC(=O)[C@H]3[C@@H]2C(=O)NC[C@H](O)c2ccccc2)cc1,inactive,inactive,inactive
C[C@H](CO)N1C[C@H](C)[C@H](CN(C)S(=O)(=O)c2cn(C)cn2)OCc2cn(nn2)CCCC1=O,inactive,inactive,inactive
CC(C)C[C@@H]1NC(=O)[C@@]23C(=O)N[C@@H](Cc4ccccc4)[C@H]2[C@H](C)[C@@]2(C)O[C@H]2[C@@H]3/C=C/C/C=C\CNC(=O)[C@@H](C)NC1=O,inactive,inactive,inactive
C[C@H](CO)N1C[C@H](C)[C@H](CN(C)Cc2cccc(C(F)(F)F)c2)Oc2ncc(-c3cccc(C(F)(F)F)c3)cc2C1=O,active,inactive,inactive
C[C@@H]1CN([C@H](C)CO)C(=O)c2cc(NC(=O)Cc3ccccc3)ccc2O[C@H]1CN(C)S(C)(=O)=O,inactive,inactive,inactive
C[C@@H]1CCCCO[C@@H](CN(C)Cc2ccc(Cl)c(Cl)c2)[C@@H](C)CN([C@H](C)CO)C(=O)c2cc(NC(=O)C3CCCCC3)ccc2O1,inactive,active,inactive
C[C@H](CO)N1C[C@H](C)[C@H](CN(C)S(=O)(=O)c2cccs2)Oc2ccc(NS(=O)(=O)c3cn(C)cn3)cc2C1=O,inactive,inactive,inactive
CC(C)NC(=O)Nc1ccc2c(c1)CC(=O)N([C@H](C)CO)C[C@@H](C)[C@H](CN(C)C(=O)NC1CCCCC1)O2,inactive,inactive,inactive
O=C(C[C@H]1CC[C@H]2[C@@H](COC[C@@H](O)CN2Cc2cccc(C(F)(F)F)c2)O1)NCCc1ccncc1,inactive,inactive,inactive
Cc1ccc(S(=O)(=O)NCCC(=O)O)cc1,inactive,inactive,inactive
C[C@H]1CCCCO[C@H](CN(C)C(=O)c2ccccc2)[C@@H](C)CN([C@@H](C)CO)C(=O)c2cc(NS(=O)(=O)c3ccc(Cl)cc3)ccc2O1,inactive,inactive,inactive
COc1ccc(S(=O)(=O)Nc2ccc3c(c2)CC(=O)N([C@H](C)CO)C[C@@H](C)[C@@H](CN(C)S(=O)(=O)c2ccccc2)O3)cc1,inactive,inactive,inactive

# Source: the antibiotic and cytotoxicity screens of Wong et al. (2023)
